From PubChem BioAssay (Tox21)
“And” between values parts separate entries of the source, which are not always exact repeats. Equal values may be shown once. The shares of active, inactive and inconclusive entries below differ from those in the screen. For some assays here: A potency beside an inconclusive call is a rough fit, not a confirmed value. Some compounds were tested as several samples or in several runs, with calls that do not always agree. The source made the active and inactive calls. Unless noted, the call rests on the fitted dose curve; in most records, active means well fitted curve in the direction sought with a large enough effect in the repeat runs; inconclusive means weak or mixed curves; inactive means no such curve, though single readings can be large; an effect the other way counts as inactive or inconclusive.

Columns and labels:
[1] = qHTS assay to identify small molecule HDAC inhibitors (AID 1259364); settings: HCT-116 HDAC-Glo I/II luminescence, 2 h; series mostly up to 92.4 µM; further: nearly all actives have a fitted effect of over 45% in size; further: potency means the concentration at half of the fitted maximal effect; on activity change, negative = inhibition: top concentration of the series differs between compounds; on the % scale 0 is the no-effect control and ±100 the full control effect
Procedure, shortened: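 Endogenous HDAC class I/II activity was measured in wild-type HCT-116 cells by HDAC-Glo luminescence after 2 h compound treatment.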

[2] = qHTS assay to identify small molecule agonists of the sonic hedgehog signaling (Shh) pathway - cell viability counter screen (AID 1259366); settings: NIH/3T3 Gli1-Luc viability, CellTiter-Fluor, 24 h; series mostly up to 92.4 µM; further: potency means the concentration at half of the fitted maximal effect; nearly all actives have a fitted effect of over 50% in size
Procedure, shortened: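 Viability measured fluorometrically (CellTiter-Fluor, 1hr, 37C) in 3T3 Gli1-Luc reporter cells after 23hr compound exposure within a 24hr incubation at 37C/5% CO2.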

[3] = biological target: Progesterone receptor (Homo sapiens) (UniProt P06401); assay: qHTS assay to identify small molecule antagonists of the progesterone receptor (PR) signaling pathway (AID 1346795; active means well fitted inhibition curve with a large enough effect in the signal ratio in the repeat runs, not every such curve was filed as active; inconclusive means weak or mixed curves; the % refers to the signal ratio; further: potency means the concentration at half of the fitted maximal effect; on activity change, negative = inhibition: on the % scale 0 is the no-effect control and ±100 the full control effect); settings: PR-UAS-bla HEK293T, beta-lactamase FRET ratio, 16 h; activity change, negative = inhibition: at 92.4 µM (top of the series) unless noted
UniProt P06401, sequence (P06401 whole entry, looked up): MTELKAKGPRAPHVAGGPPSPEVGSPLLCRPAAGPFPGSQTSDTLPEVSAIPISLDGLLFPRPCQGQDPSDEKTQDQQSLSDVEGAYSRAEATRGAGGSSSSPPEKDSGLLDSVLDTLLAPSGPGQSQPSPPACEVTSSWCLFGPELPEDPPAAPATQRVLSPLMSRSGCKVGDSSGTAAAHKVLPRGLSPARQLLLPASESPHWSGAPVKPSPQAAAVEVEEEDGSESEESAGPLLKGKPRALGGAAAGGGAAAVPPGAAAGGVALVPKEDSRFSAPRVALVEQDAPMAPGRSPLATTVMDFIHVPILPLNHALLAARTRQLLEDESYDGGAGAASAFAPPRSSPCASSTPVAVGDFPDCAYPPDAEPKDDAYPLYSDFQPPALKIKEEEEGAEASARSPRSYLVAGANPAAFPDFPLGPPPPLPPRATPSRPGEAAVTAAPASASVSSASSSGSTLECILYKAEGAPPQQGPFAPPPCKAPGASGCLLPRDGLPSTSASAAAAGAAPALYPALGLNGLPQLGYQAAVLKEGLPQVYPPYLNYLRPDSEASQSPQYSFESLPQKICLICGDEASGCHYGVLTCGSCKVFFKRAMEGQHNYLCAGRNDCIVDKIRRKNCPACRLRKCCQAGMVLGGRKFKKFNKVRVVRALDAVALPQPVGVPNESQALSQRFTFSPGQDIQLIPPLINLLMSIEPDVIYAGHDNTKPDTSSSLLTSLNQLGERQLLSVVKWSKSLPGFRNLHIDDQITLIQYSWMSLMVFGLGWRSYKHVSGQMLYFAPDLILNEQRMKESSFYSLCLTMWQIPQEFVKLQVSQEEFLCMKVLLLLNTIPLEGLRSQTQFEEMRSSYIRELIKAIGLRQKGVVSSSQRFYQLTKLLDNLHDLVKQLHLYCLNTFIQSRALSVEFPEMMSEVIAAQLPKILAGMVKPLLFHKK
Procedure, shortened: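 HEK293T PR-UAS-bla reporter cells in charcoal-stripped serum (2%) received compound after a 6 hr settling period, followed by R5020 agonist at 1 nM final; 16 hr incubation preceded the FRET substrate step and fluorescence measurement.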

[4] = qHTS assay to identify small molecule antagonists of the TGF-beta/Smad signaling pathway - cell viability counter screen (AID 1346824); settings: SBE-bla HEK293T viability, CellTiter-Glo luminescence; series mostly up to 76.8 µM; further: potency means the concentration at half of the fitted maximal effect; nearly all actives have a fitted effect of over 50% in size
Procedure, shortened: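 Cytotoxicity counter-screen run in the same wells as the beta-lactamase Smad reporter read: CellTiter-Glo luminescence after 30 min at room temperature. HEK 293T SBE-bla cells had 5 hr compound exposure at 37 C with TGF-beta1 (0.25 ng/mL stock).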

[5] = biological target: Estrogen receptor beta (Homo sapiens) (UniProt Q92731); assay: qHTS assay to identify small molecule agonists of the estrogen receptor beta (ER-beta) signaling pathway (AID 1259377; active means well fitted activation curve with a large enough effect in the signal ratio in the repeat runs, not every such curve was filed as active; inconclusive means weak or mixed curves, or effect the other way; the % refers to the signal ratio; further: potency means the concentration at half of the fitted maximal effect); settings: ER-beta-UAS-bla HEK293T, beta-lactamase FRET ratio, 16 h; activation: at 92.4 µM (top of the series) unless noted
UniProt Q92731, sequence (Q92731 whole entry, looked up): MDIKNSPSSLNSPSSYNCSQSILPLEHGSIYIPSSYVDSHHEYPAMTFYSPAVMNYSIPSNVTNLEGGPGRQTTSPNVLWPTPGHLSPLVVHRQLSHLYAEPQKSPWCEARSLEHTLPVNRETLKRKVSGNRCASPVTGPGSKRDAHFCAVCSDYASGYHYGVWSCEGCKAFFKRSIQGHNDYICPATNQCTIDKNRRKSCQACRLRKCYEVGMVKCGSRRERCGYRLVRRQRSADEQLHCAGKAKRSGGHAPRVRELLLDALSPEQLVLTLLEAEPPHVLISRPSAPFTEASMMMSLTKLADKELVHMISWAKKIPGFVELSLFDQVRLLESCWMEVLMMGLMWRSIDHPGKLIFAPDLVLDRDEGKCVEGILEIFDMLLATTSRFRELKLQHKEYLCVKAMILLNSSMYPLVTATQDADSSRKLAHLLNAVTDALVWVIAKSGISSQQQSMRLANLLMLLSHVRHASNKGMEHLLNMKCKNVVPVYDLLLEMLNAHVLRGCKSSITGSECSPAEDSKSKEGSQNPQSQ
Procedure, shortened: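 A UAS-controlled beta-lactamase reporter in ER-beta-UAS-bla HEK293T cells reports receptor activation. Compounds act for 16 hr at 37C in 2% charcoal-stripped serum, and a FRET substrate is read by fluorescence after 2 hours.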

[6] = biological target: Estrogen receptor beta (Homo sapiens) (UniProt Q92731); assay: qHTS assay to identify small molecule antagonists of the estrogen receptor beta (ER-beta) signaling pathway (AID 1259378; active means well fitted inhibition curve with a large enough effect in the signal ratio in the repeat runs, not every such curve was filed as active; inconclusive means weak or mixed curves, or effect the other way; inactive means no such curve, though single readings can be large or run the other way; the % refers to the signal ratio; further: potency means the concentration at half of the fitted maximal effect; on activity, negative = inhibition: on the % scale 0 is the no-effect control and ±100 the full control effect); settings: ER-beta-UAS-bla HEK293T, beta-lactamase FRET ratio, 16 h; activity, negative = inhibition: at 92.4 µM (top of the series) unless noted
Procedure, shortened: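 Antagonist mode: compounds added to beta-lactamase reporter HEK293T ER-beta-UAS cells stimulated with E2 (1nM final), 16 hr at 37C. LiveBLAzer B/G FRET substrate, 2 hours room temperature, fluorescence read-out.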

[7] = qHTS assay to identify small molecule agonists of the androgen receptor (AR) signaling pathway in the presence of an antagonist - cell viability counter screen (AID 1259379); settings: MDA-kb2 viability, CellTiter-Fluor, 16 h; series mostly up to 92.4 µM; further: potency means the concentration at half of the fitted maximal effect; nearly all actives have a fitted effect of over 25% in size
Procedure, shortened: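 In MDA-kb2 cells (human breast carcinoma, MMTV-luciferase), compounds at 15 concentrations plus 3.0uM nilutamide; 16 hr, 37C, 0% CO2; CellTiter-Fluor fluorescence read for viability.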

[8] = qHTS assay to identify small molecule antagonists of the estrogen receptor beta (ER-beta) signaling pathway - cell viability counter screen (AID 1259382); settings: ER-beta-UAS-bla HEK293T viability, CellTiter-Glo luminescence, 16 h; series mostly up to 92.4 µM; further: potency means the concentration at half of the fitted maximal effect; nearly all actives have a fitted effect of over 55% in size
Procedure, shortened: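 Tox21 10K library tested in qHTS format on ER-beta-bla HEK293T cells stimulated with 1nM E2; 16 hr treatment at 37C. Same-well CellTiter-Glo luminescence served as the cell viability measure.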

[9] = qHTS assay to identify small molecule agonists of the estrogen receptor alpha (ER-alpha) signaling pathway in the presence of an antagonist - cell viability counter screen (AID 1259386); settings: VM7Luc4E2 viability, CellTiter-Fluor fluorescence, 22 h; series mostly up to 92.4 µM;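 further: potency means the concentration at half of the fitted maximal effect; cells exposed to compounds for 22 h at 37 °C before the viability read; nearly all actives have a fitted effect of over 30% in size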
Procedure, shortened: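 Fluorescent CellTiter-Fluor viability signal from VM7Luc4E2 cells, with the reagent added during the final hour of a 22hr compound exposure at 37C in the presence of 10.0nM ICI-182,780.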

[10] = biological target: Progesterone receptor (Homo sapiens) (UniProt P06401); assay: qHTS assay to identify small molecule agonists of the progesterone receptor (PR) signaling pathway (AID 1346784; calls by dose curve; further: nearly all actives have a fitted effect of over 30% in size; further: potency means the concentration at half of the fitted maximal effect; on activation: on the % scale 0 is the no-effect control and ±100 the full control effect); settings: PR-UAS-bla HEK293T, beta-lactamase FRET ratio, 16 h; activation: at 92.4 µM (top of the series) unless noted
Procedure, shortened: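 Agonist mode, quantitative HTS format in a HEK 293T line expressing a UAS-controlled beta-lactamase reporter; 16 hr compound exposure at 37C in 2% charcoal-stripped FBS, then LiveBLAzer B/G FRET fluorescence.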

[11] = qHTS assay to identify small molecule antagonists of the progesterone receptor (PR) signaling pathway - cell viability counter screen (AID 1346798); settings: PR-UAS-bla HEK293T viability, CellTiter-Glo luminescence, 16 h; series mostly up to 92.4 µM; further: potency means the concentration at half of the fitted maximal effect; nearly all actives have a fitted effect of over 50% in size
Procedure, shortened: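 Same-well multiplex: after 16 hr at 37C with compound and R5020 stimulation, HEK293T cells carrying a UAS-bla reporter received LiveBLAzer substrate (2 hr RT), then CellTiter-Glo (30 min RT) for luminescent viability.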

[12] = qHTS assay to identify small molecule agonists of the progesterone receptor (PR) signaling pathway - cell viability counter screen (AID 1346799; calls by dose curve; further: nearly all actives have a fitted effect of over 45% in size; further: potency means the concentration at half of the fitted maximal effect); settings: PR-UAS-bla HEK293T viability, CellTiter-Glo luminescence, 16 h; series mostly up to 92.4 µM
Procedure, shortened: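 Counter screen for cytotoxicity: compound-treated PR-UAS-bla HEK293T cells (16 hr, 37C, 5% CO2) were assayed with CellTiter-Glo, luminescence measured after 30 min at room temperature.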

[13] = qHTS assay to identify small molecule HDAC inhibitors - cell viability counter screen (AID 1259365); settings: HCT-116 viability, CellTiter-Glo ATP luminescence, 2 h; series mostly up to 92.4 µM; further: nearly all actives have a fitted effect of over 50% in size; further: potency means the concentration at half of the fitted maximal effect
Procedure, shortened: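 Viability readout: CellTiter-Glo luminescence. Wild-type HCT-116 cells, 2hr compound treatment following overnight attachment at 37 C.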

[14] = qHTS assay to identify small molecule agonists of the estrogen receptor beta (ER-beta) signaling pathway - cell viability counter screen (AID 1259380); settings: ER-beta-bla HEK293T viability, CellTiter-Glo luminescence, 16 h; series mostly up to 92.4 µM; further: nearly all actives have a fitted effect of over 30% in size; further: potency means the concentration at half of the fitted maximal effect
Procedure, shortened: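 Viability of ER-beta-UAS-bla HEK293T cells was determined by CellTiter-Glo luminescence following 16 hr treatment with test compounds at 37C.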

[15] = biological target: Thyrotropin receptor (Homo sapiens) (UniProt P16473); assay: qHTS assay to identify small molecule antagonists of the thyroid stimulating hormone receptor (TSHR) signaling pathway (AID 1259385; calls by dose curve; further: on the % scale 0 is the no-effect control and ±100 the full control effect; nearly all actives have a fitted effect of over 20% in size); settings: TSHR-HEK293 cAMP HTRF, TSH-stimulated antagonist mode; activity change, negative = inhibition: at 92.4 µM (top of the series) unless noted
UniProt P16473, sequence (P16473 whole entry, looked up): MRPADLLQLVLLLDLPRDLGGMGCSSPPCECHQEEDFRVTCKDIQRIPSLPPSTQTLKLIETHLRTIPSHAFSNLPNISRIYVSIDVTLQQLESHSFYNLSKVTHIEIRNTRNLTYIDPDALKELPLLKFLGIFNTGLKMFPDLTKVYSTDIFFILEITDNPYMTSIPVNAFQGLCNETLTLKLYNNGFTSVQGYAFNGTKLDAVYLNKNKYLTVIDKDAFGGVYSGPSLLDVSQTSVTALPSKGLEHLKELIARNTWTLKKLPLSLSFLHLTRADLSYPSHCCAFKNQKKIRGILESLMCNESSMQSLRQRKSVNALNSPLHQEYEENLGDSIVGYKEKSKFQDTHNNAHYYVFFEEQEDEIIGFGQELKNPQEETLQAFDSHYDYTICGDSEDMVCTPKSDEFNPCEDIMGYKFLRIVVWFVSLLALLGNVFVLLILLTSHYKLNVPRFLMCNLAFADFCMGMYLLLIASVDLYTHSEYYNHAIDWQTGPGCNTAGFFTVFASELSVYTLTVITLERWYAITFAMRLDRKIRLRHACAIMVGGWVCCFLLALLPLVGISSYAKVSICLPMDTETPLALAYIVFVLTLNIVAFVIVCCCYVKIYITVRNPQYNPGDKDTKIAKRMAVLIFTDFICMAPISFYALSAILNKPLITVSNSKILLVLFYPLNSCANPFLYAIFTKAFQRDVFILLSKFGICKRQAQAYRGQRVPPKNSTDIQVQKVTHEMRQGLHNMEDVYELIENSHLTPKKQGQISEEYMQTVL
Procedure, shortened: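 Antagonist mode: compound-treated TSHR-expressing HEK293 cells were stimulated with 1.5 ng/mL TSH (final) in presence of Ro20-1724 for 30 min at RT. HTRF cAMP detection after 1 h; each compound tested at 15 concentrations, triplicate.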

[16] = qHTS assay to identify small molecule antagonists of the sonic hedgehog signaling (Shh) pathway (AID 1259369; calls by dose curve; further: potency means the concentration at half of the fitted maximal effect; nearly all actives have a fitted effect of over 45% in size); settings: NIH/3T3 Gli1-Luc reporter, Shh antagonist, luminescence 24 h; series mostly up to 92.4 µM
Procedure, shortened: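 Screening used 3T3Gli1-Luc cells at 2,000 per well, compounds delivered in DMSO, and conditioned medium as agonist stimulus; plates incubated 24hr at 37 C and 5% CO2 before a 30min luciferase step.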

[17] = qHTS assay to identify small molecule antagonists of the sonic hedgehog signaling (Shh) pathway - cell viability counter screen (AID 1259367); settings: NIH/3T3 Gli1-Luc viability, CellTiter-Fluor, 24 h; series mostly up to 92.4 µM; further: potency means the concentration at half of the fitted maximal effect; nearly all actives have a fitted effect of over 55% in size
Procedure, shortened: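 Using CellTiter-Fluor, viability of Gli1-Luc reporter 3T3 cells is read by fluorescence in the wells used for the Shh luciferase assay. Treatment lasts 23 hr with conditioned medium, then reagent 1 hr at 37C.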
Tags describe the fitted curve by direction and shape or compound fluorescence and quenching.

CCCC[n+]1ccccc1
Potency [1]: inactive | Potency [2]: inconclusive: 69.5 µM [rising, single point] | Potency [3]: inconclusive: 15.4 µM [falling, single point] | activity change, negative = inhibition [3]: inconclusive: 2.88% | Potency [4]: inconclusive: 54.9 µM [rising, single point]

IC(I)=C(I)I
Potency [1]: inactive | Potency [5]: inconclusive: 30.6 µM [rising, partial curve] | Potency [6]: inconclusive: 24.3 µM [rising, full curve] | Potency [7]: active: 27.3 µM | Potency [8]: active: 21.7 µM | Potency [9]: inconclusive: 68.6 µM [cytotoxic, single point] | activation [10]: inconclusive: -27.7% | Potency [3]: active: 17.2 µM | Potency [11]: active: 27.3 µM | Potency [12]: active: 27.3 µM | Potency [4]: active: 43.6 µM

CN(C)C(=S)[S-].CN(C)C(=S)[S-].[Cu+2]
Potency [13]: inconclusive: 1.87 µM [rising, full curve] | Potency [7]: active: 3.33 µM | Potency [8]: active: 7.45 µM | Potency [11]: active: 1.18 µM | Potency [12]: active: 1.49 µM | Potency [4]: active: 4.23 µM

c1ccc(N=Nc2ccccc2)cc1
Potency [1]: inconclusive: 27.8 µM [inhibitor, partial curve] and active: 30.6 µM | Potency [14]: inactive | Potency [15]: inactive | activity change, negative = inhibition [3]: inconclusive: 4.76% | Potency [12]: inactive

Oc1ccc(Cl)c(Cl)c1Cl
Potency [1]: inactive | Potency [14]: inconclusive: 28.3 µM [cytotoxic, single point] | Potency [3]: inconclusive: 25.2 µM [falling, partial curve] | Potency [11]: inconclusive: 35.6 µM [rising, partial curve, poor fit] | Potency [12]: inconclusive: 71.1 µM [rising, single point]

CCC1(c2ccccc2)C(=O)N=C(O)NC1=O (centres undefined)
Potency [13]: inconclusive: 15 µM [cytotoxic, single point] | Potency [10]: inactive | Potency [11]: inconclusive: 33.5 µM [rising, partial curve, poor fit] | Potency [12]: inconclusive: 29.8 µM [cytotoxic, single point]

ClC(Cl)(Cl)C(Cl)(Cl)Cl
Potency [1]: inactive | Potency [11]: inconclusive: 2.47 µM [cytotoxic, single point]

C=CCOC(C)=O
Potency [1]: inactive | activity, negative = inhibition [6]: inconclusive: -48.8% | Potency [3]: active: 1.91 µM

Cc1ccc(Cl)c(O)c1
Potency [13]: inactive | Potency [16]: inconclusive: 106 nM [inhibitor, single point]

COc1ccc(N)cc1N
Potency [13]: active: 15.8 µM and inconclusive: 29.4 µM [cytotoxic, partial curve] | Potency [7]: inconclusive: 37 µM [cytotoxic, single point] | Potency [14]: active: 7.08 µM and active: 13.1 µM | Potency [9]: inconclusive: 23.4 µM [cytotoxic, partial curve, poor fit] | Potency [10]: inconclusive: 22.4 µM [activator] | Potency [12]: inconclusive: 37 µM [rising, single point] | Potency [4]: active: 7.14 µM and active: 21 µM

II
Potency [1]: inconclusive: 27.3 µM [inhibitor, partial curve] | Potency [14]: inconclusive: 109 µM [cytotoxic, partial curve, poor fit] | Potency [8]: inconclusive: 48.6 µM [cytotoxic, partial curve, poor fit] | Potency [3]: inconclusive: 1.09 µM [rising, single point] | Potency [11]: inconclusive: 5.45 µM [cytotoxic, full curve] | Potency [12]: active: 10.9 µM

Clc1ccc(CSC(Cn2ccnc2)c2ccc(Cl)cc2Cl)cc1 (centres undefined)
Potency [13]: inconclusive: 29.8 µM [cytotoxic, partial curve, poor fit] | Potency [2]: inconclusive: 33.5 µM [cytotoxic, single point] | Potency [5]: inconclusive: 13.3 µM [falling, full curve] | Potency [6]: inconclusive: 18.8 µM [cytotoxic, partial curve] | Potency [7]: inconclusive: 33.5 µM [cytotoxic, single point] | Potency [9]: inconclusive: 33.5 µM [cytotoxic, single point] | Potency [12]: inconclusive: 0.422 µM [cytotoxic, partial curve, poor fit]

C[C@]12C/C(=C/O)C(=O)C[C@@H]1CC[C@@H]1[C@@H]2CC[C@@]2(C)[C@H]1CC[C@]2(C)O
Potency [13]: inconclusive: 38.9 µM [rising, partial curve, poor fit] | Potency [17]: active: 61.7 µM and inconclusive: 26.6 µM [cytotoxic, partial curve, poor fit] | Potency [16]: active: 15.5 µM and inconclusive: 5.96 µM [inhibitor] | Potency [5]: inconclusive: 55 µM [fluorescent, partial curve] and inconclusive: 26.6 µM [fluorescent, single point] | Potency [6]: inconclusive: 30.9 µM [partial curve] | activity, negative = inhibition [6]: inconclusive: -17.1% [at 42.5 µM] | Potency [8]: inconclusive: 13.3 µM [cytotoxic, partial curve] | Potency [10]: inconclusive: 21.9 µM [activator] | activation [10]: inconclusive: 14% [at 42.5 µM] | Potency [3]: inconclusive: 6.17 µM [rising, full curve] and inconclusive: 2.98 µM [rising, full curve] | Potency [12]: active: 77.7 µM and inconclusive: 33.5 µM [cytotoxic]
